According to PubChem BioAssay AID504332 (National Center for Advancing Translational Sciences (NCATS), 2011):
The whole screen tested about 350,000 compounds, of which about 31,000 (8.9%) were called active. The inconclusive results got no clear call from the source; some entries with a clear call stand among them for comparison. The call rests on the fitted dose curve; in most records, active means well fitted inhibition curve with a large enough effect; inconclusive means small, poorly fitted or top-dose-only effect; inactive means no such curve, though single readings can be large or run the other way. Potencies of inconclusive entries are doubtful fits and often do not repeat.

These molecules were tested against Histone-lysine N-methyltransferase EHMT2 (Homo sapiens) (UniProt Q96KQ7) (assay: qHTS Assay for Inhibitors of Histone Lysine Methyltransferase G9a). Conditions: G9a H3K9 monomethylation, AlphaScreen, 2 h; activity, negative = inhibition: at 59 µM (top of the series) unless noted.
Chain of UniProt Q96KQ7 (Q96KQ7 whole entry, looked up): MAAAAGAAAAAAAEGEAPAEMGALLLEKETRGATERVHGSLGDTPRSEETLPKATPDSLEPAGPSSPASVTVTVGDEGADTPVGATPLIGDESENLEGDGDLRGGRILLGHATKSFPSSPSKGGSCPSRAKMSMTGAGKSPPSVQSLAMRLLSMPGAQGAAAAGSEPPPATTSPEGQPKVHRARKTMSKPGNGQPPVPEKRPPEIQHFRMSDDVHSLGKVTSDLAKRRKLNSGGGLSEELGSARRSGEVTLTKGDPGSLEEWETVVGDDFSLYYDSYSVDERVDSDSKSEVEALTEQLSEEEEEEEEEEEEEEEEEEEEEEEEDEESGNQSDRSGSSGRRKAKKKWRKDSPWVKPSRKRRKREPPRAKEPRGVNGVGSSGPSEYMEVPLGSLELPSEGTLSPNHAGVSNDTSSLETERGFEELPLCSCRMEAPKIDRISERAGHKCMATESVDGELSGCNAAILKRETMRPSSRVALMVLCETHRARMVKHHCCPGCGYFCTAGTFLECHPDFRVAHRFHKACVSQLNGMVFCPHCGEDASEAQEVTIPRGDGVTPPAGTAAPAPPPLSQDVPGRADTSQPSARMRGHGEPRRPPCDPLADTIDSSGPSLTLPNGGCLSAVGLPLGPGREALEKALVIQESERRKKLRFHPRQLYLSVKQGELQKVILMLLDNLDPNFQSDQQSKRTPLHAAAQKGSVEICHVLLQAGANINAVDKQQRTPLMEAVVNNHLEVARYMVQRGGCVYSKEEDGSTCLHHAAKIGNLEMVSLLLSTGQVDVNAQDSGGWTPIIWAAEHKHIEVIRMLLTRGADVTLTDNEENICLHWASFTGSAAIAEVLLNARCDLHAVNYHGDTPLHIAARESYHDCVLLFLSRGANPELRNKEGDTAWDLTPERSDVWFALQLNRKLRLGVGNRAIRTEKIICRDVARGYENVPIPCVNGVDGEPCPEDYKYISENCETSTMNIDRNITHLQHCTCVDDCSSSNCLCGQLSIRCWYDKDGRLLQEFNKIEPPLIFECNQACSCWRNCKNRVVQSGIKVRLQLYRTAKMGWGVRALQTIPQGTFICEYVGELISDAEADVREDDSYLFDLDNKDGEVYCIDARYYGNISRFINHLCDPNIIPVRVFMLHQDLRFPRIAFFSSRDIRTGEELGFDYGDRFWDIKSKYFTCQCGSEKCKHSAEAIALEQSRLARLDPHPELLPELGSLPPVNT
How it was run: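 Methyltransferase reactions run at room temperature for 2 h (20 nM enzyme, 500 nM biotin-H3K9 peptide, 20 uM SAM) after a 15 min compound preincubation; product detected by AlphaScreen beads and anti-H3K9me1 antibody.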
Further: nearly all actives have a fitted effect of over 75% in size.
On the % scale 0 is the no-effect control and ±100 the full control effect; potency means the concentration at half of the fitted maximal effect; tags describe the fitted curve by direction and shape.

Row | Compound | Potency | activity, negative = inhibition
1 | CSc1nc2ccc(NC(=O)c3ccc(=O)n(C)n3)cc2s1 | inconclusive: 1.12 µM [inhibitor, single point] | 
2 | CN(Cc1ccccc1)C(=O)Nc1ccc2c(c1)N(C)C(=O)c1ccccc1S2 | inconclusive: 22.4 µM [inhibitor, single point] | 
3 | COCC(=O)N1CCC2(CCCN(Cc3ccccc3)C2)CC1 |  | inactive: -0.058% [at 12.7 µM]
4 | O=C(CSc1ccccn1)Nc1ccc2[nH]c(=O)[nH]c2c1 | inconclusive: 31.6 µM [inhibitor, single point] | 
5 | Cc1ccc(CNCCNCCO)s1 | active: 39.8 µM | 
6 | CC(C)c1ccc(NC(=O)c2n[nH]c(=O)c3ccccc23)cc1 |  | inactive: 2.11% [at 102 µM]
7 | Cn1c(=O)c2c(nc(NCc3ccco3)n2Cc2ccc(Cl)cc2Cl)n(C)c1=O | inconclusive: 3.16 µM [inhibitor, partial curve, poor fit] | 
8 | CCC(C(=O)NCc1ccccc1)n1nc(C)c2sc3ccccc3c2c1=O (configuration not stated) | inconclusive: 25.1 µM [inhibitor, partial curve, poor fit] | 
9 | CC(C(=O)NC1C=CS(=O)(=O)C1)N1C(=O)/C(=C/c2cccc(Cl)c2)SC1=S (configuration not stated) | active: 25.1 µM | 
10 | COc1ccc(N2CCN(C(=O)c3ccc(CS(=O)Cc4ccc(Cl)cc4)o3)CC2)cc1 (configuration not stated) | active: 50.1 µM | 
11 | COc1ccc(-c2cn3c(C)c(C(=O)Nc4cc(NC(C)=O)ccc4OC)sc3n2)cc1 | active: 14.1 µM | 
12 | CCc1ccc(NC(=O)CCn2nc(-c3ccccc3OC)c3c(C)cc(C)nc32)cc1 |  | inactive: -0.709%
13 | CON(C)S(=O)(=O)c1cccc(C(=O)Nc2ccc(S(=O)(=O)NC3=NCCCCC3)cc2)c1 | active: 50.1 µM | 
14 | CCOC(=O)C1=C(C)N=c2s/c(=C3/C(=O)Nc4ccccc43)c(=O)n2C1c1ccc(C)cc1 (configuration not stated) | inconclusive: 1.78 µM [inhibitor, full curve, poor fit] | 
15 | O=C(NCc1cccs1)C1CCCN(c2ncccn2)C1 (configuration not stated) | inconclusive: 6.31 µM [inhibitor, single point] | 
16 | Cc1ccc(-c2nnc(Nc3cccc(O)c3)c3ccccc23)cc1S(=O)(=O)N1CCOCC1 |  | inactive: -32.3%
17 | Cc1cc(C(=O)Nc2ccccc2C(=O)O)ccc1NC(=O)COc1ccccc1Cl | active: 22.4 µM | 
18 | CCOCCCNC(=O)C(c1ccc(C)cc1)N(Cc1ccc2c(c1)OCO2)C(=O)c1ccc(NC(C)=O)cc1 (configuration not stated) |  | inactive: 7.06%
19 | Cc1ccc(/C=N/NC(=O)c2cc(C3CC3)nc3ccccc23)o1 |  | inactive: 1.94%
20 | CCC(C)NC(=O)c1ccccc1NC(=O)CN1C(=O)c2cccc3cccc1c23 (configuration not stated) |  | inactive: 25.7%
21 | CC(C)Nc1ccc(-c2nc(-c3ccco3)no2)cc1[N+](=O)[O-] |  | inactive: -35.9%
22 | CCN(CC)c1ncc(C#N)c(N)n1 |  | inactive: -22.8% [at 102 µM]
23 | CCOC(=O)c1cnc2ccc(OCC)cc2c1NCCCN1CCOCC1 | inconclusive: 79.4 µM [inhibitor, partial curve, poor fit] | 
24 | CCC(C)(C)n1nnnc1CN1CCc2ccccc21 | inconclusive: 31.6 µM [inhibitor, single point] | 

Row | Compound | Potency | activity, negative = inhibition
25 | Cc1ccc(C2c3[nH]c4ccccc4c3CCN2C(=O)c2cccc(C)c2)cc1 (configuration not stated) | inconclusive: 25.1 µM [inhibitor, single point] | 
26 | COC(=O)c1ccc(C(=O)OC)c(NC(=O)COC(=O)c2ccc(OC)c(OC)c2OC)c1 | inconclusive: 17.8 µM [inhibitor, partial curve, poor fit] | 
27 | O=C(COc1ccccc1)Nc1ccc(N2CCN(C(=O)c3cccs3)CC2)cc1 | inconclusive: 79.4 µM [inhibitor, partial curve, poor fit] | 
28 | c1ccc(Nc2c(-c3c[nH]c4ccccc34)nc3ccccn23)cc1 | inconclusive: 8.91 µM [inhibitor, partial curve] | 
29 | CSc1ccc(C(C(C(=O)c2cccs2)N2CCOCC2)N2CCOCC2)cc1 (configuration not stated) |  | inconclusive: -57.9% [inhibitor]
30 | Cc1ccc(C)c(NC(=S)NNc2ccc(F)cc2F)c1 | active: 44.7 µM | 
31 | Cc1ccc2nc3c(cc(C#N)c(=O)n3CC3CCCO3)c(=O)n2c1 (configuration not stated) | inconclusive: 89.1 µM [inhibitor, single point] | 
32 | CCCCc1ccc(N=N/C(C(=O)Nc2ccccc2OC)=C(/C)O)cc1 | inconclusive: 10 µM [inhibitor, partial curve, poor fit] | 
33 | NC(=O)CSc1ccc(S(=O)(=O)N2CCCCC2)cn1 | inconclusive: 3.16 µM [inhibitor, single point] | 
34 | Cc1ccc(N2C(=O)c3ccccc3C2C(=O)c2ccc(O)cc2O)cc1 (configuration not stated) | inconclusive: 39.8 µM [inhibitor, single point] | 
35 | Cc1ccccc1C(=O)NCCCCc1ccccc1 |  | inactive: 17.1%
36 | O=S(=O)(Nc1nc2c(s1)CCCC2)c1ccc2ccccc2c1 | active: 50.1 µM | 
37 | O=c1cc(-c2ccc(O)c(-c3c(O)cc(O)c4c(=O)cc(-c5ccc(O)cc5)oc34)c2)oc2cc(O)cc(O)c12 |  | inactive: -6.42% [at 102 µM]
38 | CCOP(=O)(c1ccccc1)c1nc(-c2ccccc2C)oc1N1CCCCC1 (configuration not stated) | inconclusive: 3.16 µM [inhibitor, partial curve, poor fit] | 
39 | Cn1c(CNc2ccccc2)nc2ccccc21 |  | inactive: -25.7% [at 102 µM]
40 | Cc1cccc(OCC(=O)Nc2ccc(Cl)c(-c3nc4ncccc4o3)c2)c1C |  | inactive: 4.85%
41 | CCOC(=O)c1c(C)[nH]c(CCC(=O)Nc2ccc(C)c(F)c2)c1C |  | inactive: 6.91%
42 | COc1cc2cc(CNc3ccc(C)cc3)c(=O)n(CC(=O)Nc3ccc(F)cc3F)c2cc1OC | inconclusive: 10 µM [inhibitor, partial curve] | 
43 | Nc1c(C(=O)NCc2ccc3c(c2)OCO3)nnn1Cc1ccc(Br)cc1 |  | inactive: -3.58% [at 102 µM]
44 | Nc1ccc2nn(-c3cccc4ccccc34)nc2c1 |  | inactive: 16.9%
45 | CCOc1cc(Br)c(CC(=O)NC2CCCCCC2)cc1OCC | inconclusive: 8.91 µM [inhibitor, full curve] | 
46 | FC(F)(F)c1ccccc1-c1nccc(NCc2cccs2)n1 |  | inactive: -6.44% [at 0.501 µM]
47 | COc1cc(C(=O)NNC(=O)c2n[nH]c3ccccc23)cc(OC)c1OC | inconclusive: 39.8 µM [inhibitor, partial curve, poor fit] | 
